Reference: PubChem BioAssay AID651820 (National Center for Advancing Translational Sciences (NCATS), 2012)
Hit rate of the full screen: of about 340,000 compounds, about 12,000 (3.5%) were called active. The inconclusive results got no clear call from the source; some entries with a clear call stand among them for comparison. Calls follow the shape of the dose curve; as a rule, active = well fitted inhibition curve with a large enough effect; inconclusive = small, poorly fitted or top-dose-only effect, or another doubt; inactive = no such curve, though single readings can be large or run the other way. No potency is given beside an inconclusive call; the fits are too rough.
Potency is read from the fitted curve at half-maximal effect; tags tell the direction and shape of the fitted curve.

Assay: qHTS Assay for Inhibitors of Hepatitis C Virus (HCV)
Settings: Huh7.5.1 HCVcc-Cre (HCVcc is cell-culture hepatitis C virus) infection, luciferase reporter, 44 h; series mostly up to 41.8 µM
Method in brief: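 A cell-based infection assay in which seeded cells (1,000 per well) receive test compound after 4 h, are inoculated with HCVcc-Cre at approximately 0.5 moi, and are incubated 44 h before luminescence detection.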
For `C=CCSc1nc2sc3c(c2c(=O)n1-c1ccc(C)cc1)CCN(C)C3`, the Potency was inconclusive [inhibitor, partial curve]. With `CC(O)CNC(=O)Cc1cc(=O)[nH]c(=O)[nH]1` (stereo not drawn) the Potency was “inactive”. With `C=CCn1c(C)cc(C(=O)CSc2nnc(C3CC3)n2C2CC2)c1C` the Potency was inconclusive [inhibitor, single point]. With `O=C(CCC(=O)c1ccc(F)cc1)OC1CCOC1=O` (stereo not drawn) the Potency was “inactive”. In the case of `COCc1cc(C)nc(N2CCc3ccccc32)c1C#N`, the Potency is reported as inconclusive [inhibitor, single point]. In the case of `Cc1onc(-c2ccccc2Cl)c1C(=O)NCc1ccc2c(c1)cc(C)n2C`, the Potency is reported as inconclusive [inhibitor, partial curve]. In the case of `CC(=O)NC(c1ccc(Cl)cc1)c1ccc2cccnc2c1O` (stereo not drawn), the Potency is reported as active: 4.47 µM. In the case of `Cc1cccc(NCCNc2cccc(C)c2)c1`, the Potency is reported as inconclusive [inhibitor, single point]. With `COc1ccc(-c2noc(C3CCCN(C(=O)c4cccs4)C3)n2)cc1` (stereo not drawn) the Potency was inconclusive [inhibitor, single point]. For `O=C(CN1CCN(C(C(=O)Nc2ccc(Cl)cc2C(F)(F)F)c2ccccc2)CC1)NC1CC1` (stereo not drawn), the Potency was “inactive”. For `CCOC(=O)c1sc(N=NC2=C(O)CCCC2=O)c(C(=O)OCC)c1C`, the Potency was “inactive”. In the case of `Cc1ccc(SCC(=O)OCC(=O)N(C)C2CCS(=O)(=O)C2)cc1C` (stereo not drawn), the Potency is reported as “inactive”. In the case of `CN(c1ccccc1)S(=O)(=O)c1ccc(Cl)c(C(=O)Nc2nc3ccccc3[nH]2)c1`, the Potency is reported as inconclusive [inhibitor, partial curve]. In the case of `COc1ccc(CNC(=O)COc2ccc(S(=O)(=O)N3CCCCC3)cc2Cl)cc1`, the Potency is reported as inconclusive [inhibitor, partial curve, poor fit]. With `COc1cc(-c2nc(CN3CCN(C(=O)c4ccco4)CC3)c(C)o2)ccc1F` the Potency was inconclusive [inhibitor, partial curve]. With `CCN(CC(=O)Nc1ccc2c(c1)OCCO2)Cc1cc(=O)oc2cc(C)c(C)cc12` the Potency was inconclusive [inhibitor, partial curve]. For `O=C(Nc1cc(Sc2ccccn2)cc([N+](=O)[O-])c1)c1ccc([N+](=O)[O-])cc1`, the Potency was inconclusive [inhibitor, single point]. With `COc1ccc2oc(=O)c(/C(C)=N/Nc3nc(-c4cc(C)ccc4C)cs3)cc2c1` the Potency was “inactive”. For `Cc1cccc(C(=O)Nc2cccc(-c3cnc4ccccc4n3)c2)c1`, the Potency was inconclusive [inhibitor, full curve]. In the case of `COc1ccc(N=C(N)SCc2ccccn2)cc1`, the Potency is reported as inconclusive [inhibitor, single point]. With `COC(=O)Nc1ccc(S(=O)(=O)N2CCCc3cccc(O)c32)cc1` the Potency was active: 11.2 µM. For `COc1ccc(C(=O)OCn2nnc3ccccc3c2=O)cc1`, the Potency was inconclusive [inhibitor, single point]. For `COC(=O)C1=C(c2ccc(-c3ccccc3)c(F)c2)C[C@@H]2CC[C@H]1N2C(=O)NCc1ccc(F)cc1`, the Potency was inconclusive [inhibitor, single point]. With `O=C(Nc1ccc(C(F)(F)F)cc1[N+](=O)[O-])O[C@H]1[C@H](Cc2ccccc2)NS(=O)(=O)[C@H]2C[C@@H]3C=C[C@]12O3` the Potency was inconclusive [inhibitor, single point]. With `CC1CCC2C(C1)c1sc(=O)[nH]c1SC2(C)C` (stereo not drawn) the Potency was inconclusive [inhibitor, single point]. For `CN(C)c1nc(N)nc(CSc2ccccn2)n1`, the Potency was “inactive”. For `c1cncc(CNc2ncnc3sc4c(c23)CCCC4)c1`, the Potency was inconclusive [inhibitor, single point]. With `CCn1c(=O)cc(OCC(=O)O)c2ccccc21` the Potency was “inactive”. For `CC(C)C[C@@H](CN1CCCC1CN1C(=S)NC[C@@H]1Cc1ccc(O)cc1)N1C[C@H](Cc2ccc(O)cc2)N(CC2CCCCC2)C1=S` (stereo partly drawn), the Potency was inconclusive [inhibitor, single point]. For `CC1=C/C(=N\OS(=O)(=O)c2ccccc2)C(C)=CC1=O`, the Potency was inconclusive [inhibitor, single point]. In the case of `CC(C)(C)n1cnc2cc(NC(=O)c3cccs3)ccc21`, the Potency is reported as inconclusive [inhibitor, single point]. In the case of `Cc1ccc(N(CC(=O)NCc2ccc3c(c2)OCO3)C(=O)c2csnn2)cc1`, the Potency is reported as “inactive”. With `COc1ccc(C(=O)NCCC2=CCCCC2)cc1[N+](=O)[O-]` the Potency was inconclusive [inhibitor, partial curve]. With `CCCCCC(=O)N1CC2(CC(c3cccc(NC(=O)CC(c4ccccc4)c4ccccc4)c3)=NO2)C[C@@H]1C(N)=O` (stereo partly drawn) the Potency was inconclusive [inhibitor, single point]. For `COc1cc(/C=N/NC(=O)c2ccc(CN3c4cccc5cccc(c45)S3(=O)=O)cc2)cc(OC)c1O`, the Potency was inconclusive [inhibitor, single point]. In the case of `COc1ccc(NC(=O)CSc2c3c(nc4cc(Cl)ccc24)CCCC3)cc1OC`, the Potency is reported as inconclusive [inhibitor, full curve, poor fit]. In the case of `O=C(NN=Cc1ccc(O)cc1O)c1ccccc1NS(=O)(=O)c1cccs1`, the Potency is reported as inconclusive [inhibitor, single point]. For `Cc1c(/C=N/n2cnnc2)c2ccccc2n1CCOc1ccc(Cl)cc1`, the Potency was inconclusive [inhibitor, single point]. In the case of `C=CCN1C(=O)c2ccccc2NC1c1ccc(Br)s1` (stereo not drawn), the Potency is reported as “inactive”. In the case of `O=C(Nc1ccc(C(=O)c2ccccc2)cc1)c1ccccc1`, the Potency is reported as active: 2.82 µM. In the case of `CCNc1nc(NCC)nc(N/N=C/c2ccc(O)c(O)c2)n1`, the Potency is reported as “inactive”. For `Cc1ccc(C(=C2C3C=CC2C2C(=O)NC(=O)C32)c2ccc(C)cc2)cc1` (stereo not drawn), the Potency was inconclusive [inhibitor, partial curve]. For `Cc1ccc(NC(=O)Nc2ccc(Cl)cc2)c(Br)c1`, the Potency was inconclusive [inhibitor, partial curve, poor fit]. For `CC1(c2ccccc2)C(C#N)C(=O)NC(=O)C1C#N` (stereo not drawn), the Potency was inconclusive [inhibitor, full curve, poor fit]. In the case of `Cn1c(=O)n(C)c2cc(/C=N/NC(=O)c3ccc(Cl)cc3Cl)ccc21`, the Potency is reported as inconclusive [inhibitor, partial curve, poor fit]. With `CCCC(=O)Nc1nc2c(C)c(Cl)ccc2s1` the Potency was inconclusive [inhibitor, single point]. For `Cc1cccc(NC(=O)c2ccc(S(=O)(=O)N(C)c3ccccc3)cc2)n1`, the Potency was inconclusive [inhibitor, partial curve]. For `Cc1ccc(-n2nc(C)cc2NC(=O)COc2cc(C)cc3oc(=O)c4c(c23)CCC4)cc1`, the Potency was active: 7.08 µM. In the case of `NNC(=O)c1cccn(Cc2ccc(Cl)cc2Cl)c1=O`, the Potency is reported as inconclusive [inhibitor, single point]. In the case of `CCn1cnc2sc(C(=O)Oc3cccc(C)c3)c(C)c2c1=O`, the Potency is reported as active: 1.41 µM. For `COc1ccc(-n2nnnc2SCC(=O)N2CCOCC2)cc1`, the Potency was “inactive”. For `Cn1c(CN2CCCCC2)nc2cc(NC(=O)c3cccc(Br)c3)ccc21`, the Potency was active: 5.62 µM. For `CCCCCN(C(=O)CCC(=O)OCc1ccc(C(C)(C)C)cc1)c1c(N)n(CCCC)c(=O)[nH]c1=O`, the Potency was inconclusive [inhibitor, single point]. For `NC(=O)CSc1oc(-c2ccco2)nc1S(=O)(=O)c1ccc(Br)cc1`, the Potency was inconclusive [inhibitor, partial curve]. In the case of `O=C(C1CN(C(=O)c2cc3cc(Cl)ccc3o2)c2ccccc2O1)N1CCCCC1` (stereo not drawn), the Potency is reported as inconclusive [inhibitor, single point]. With `Cc1ccc2nc(NC(=O)CCCC(=O)O)sc2c1` the Potency was “inactive”. With `CCc1nnc(NC(=O)c2nc(S(=O)(=O)Cc3cccc(C)c3)ncc2Cl)s1` the Potency was active: 11.2 µM. In the case of `CCc1nn(CC(=O)NC(C)CCc2ccccc2)c(=O)c2cc3cc(F)ccc3n12` (stereo not drawn), the Potency is reported as inconclusive [inhibitor, full curve]. For `Cc1onc(-c2c(Cl)cccc2Cl)c1C(=O)N1CCN(c2ccc(F)cc2)CC1`, the Potency was inconclusive [inhibitor, single point]. With `O=[N+]([O-])c1ccc2oc(-c3ccccc3)nc2c1` the Potency was “inactive”. With `CCOC(=O)C1=C(CN2CC(C)CC(C)C2)NC(=O)NC1c1ccc2c(c1)OCO2` (stereo not drawn) the Potency was inconclusive [inhibitor, single point]. For `CCCCC(=O)Nc1nc2c(OC)cc([N+](=O)[O-])cc2s1`, the Potency was inconclusive [inhibitor, partial curve]. In the case of `Cc1cc2n(n1)C(c1sccc1C)Nc1ccccc1-2` (stereo not drawn), the Potency is reported as inconclusive [inhibitor, single point]. In the case of `Cc1cc(C)nc(N/N=C/c2ccccc2OCc2cccc(Br)c2)n1`, the Potency is reported as inconclusive [inhibitor, single point]. In the case of `CC(C)(C)c1csc(NC(=O)c2cccs2)n1`, the Potency is reported as inconclusive [inhibitor, partial curve]. With `CCCCCC(=O)NC(=S)NNC(=O)CC` the Potency was inconclusive [inhibitor, single point]. In the case of `COc1cccc(/C=C/C(=O)Nc2ccc3nc4n(c(=O)c3c2)CCCC4)c1OC`, the Potency is reported as inconclusive [inhibitor, single point]. With `Cc1cc(C(=O)COC(=O)c2cccs2)c(C)n1-c1c(C)n(C)n(-c2ccccc2)c1=O` the Potency was inconclusive [inhibitor, single point].
